Laboratory results published in PubChem BioAssay AID686979 (National Center for Advancing Translational Sciences (NCATS), 2013).
Several values for one entry are separate records, joined by “and”; a condition that tells them apart may be missing. Equal values may be shown once. Among all 420,000 compounds or so, about 50,000 (12%) were called active. Inconclusive means that the source gave no clear call. Such entries were picked first, then a sample of the others. Calls follow the shape of the dose curve; as a rule, active = well fitted inhibition curve with a large enough effect; inconclusive = small, poorly fitted or top-dose-only effect; inactive = flat fitted curve, though single readings scatter. Potencies beside an inconclusive call are fits to weak or partial responses and may not hold up.

Experiment: qHTS for Inhibitors of human tyrosyl-DNA phosphodiesterase 1 (TDP1): qHTS in cells in presence of CPT; also: nearly all actives have a fitted effect of over 55% in size
Conditions: chicken DT40 Tdp1-/-;hTDP1 cells + 20 nM CPT, ATP luminescence, 48 h; activity change, negative = growth inhibition: at 46.2 µM (top of the series) unless noted
Procedure, shortened: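 Cell growth measured by CellTiter-Glo luminescence after a minimum 48 h, 37 C compound exposure with 20 nM CPT in Tdp1-knockout DT40 cells stably expressing hTDP1, seeded 400/well; qHTS titration format.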
% is scaled to controls: 0 for no effect and ±100 for the full control effect; potency is read from the fitted curve at half-maximal effect; tags tell the direction and shape of the fitted curve.

SMILES	activity change, negative = growth inhibition	Potency
CC(NC(=O)COc1ccccc1Cl)c1ccccc1 (centres undefined)	inactive: -19.3%	–
CCOC(=O)c1sc(NC(=O)CSc2nc3ccccc3o2)c(C(=O)OCC)c1C	–	inconclusive: 25.9 µM [inhibitor, single point]
COc1ccc(/C=N/NC(=O)c2cc(OC)c(OC)c(OC)c2)cc1CN1CCc2cc(OC)c(OC)cc2C1C (centres undefined)	–	inconclusive: 29.1 µM [inhibitor, partial curve, poor fit]
CCOc1ccc(S(=O)(=O)Nc2cccc(N(C)S(C)(=O)=O)c2)cc1	–	active: 23.1 µM
Cc1cccc(-c2cc3c(nn2)-c2ccccc2C3=O)c1	–	inconclusive: 29.1 µM [inhibitor, single point]
COc1ccc(OC)c(CCNC(=O)CCCc2nnc3n(C)c(=O)c4sccc4n23)c1	–	inactive and inconclusive: 29.1 µM [inhibitor, single point]
CCN(CC)c1ccc(-c2nnc(SCC(=O)NCc3ccco3)n2CC)cc1	–	inconclusive: 15.8 µM [inhibitor, partial curve]
COc1cccc(N2C(=O)CSC23C(=O)N(CC(=O)Nc2cc(C)ccc2C)c2ccccc23)c1 (centres undefined)	–	inconclusive: 25.9 µM [inhibitor, single point]
CCCCCCSC1=C(C#N)C(c2ccc(O)cc2)CC(=O)N1 (centres undefined)	–	inconclusive: 5.8 µM [inhibitor, full curve, poor fit]
CC1CCN(S(=O)(=O)c2ccc3nc(-c4cccnc4)cc(C(=O)NCCCOC(C)C)c3c2)CC1	inactive: 4.02%	–
O=C1C=CC(c2c[nH]c3ccccc23)CC1 (centres undefined)	–	inconclusive: 29.1 µM [inhibitor, single point]
OCCCCNCc1ccc(OCc2ccc(Cl)cc2)cc1	–	inconclusive: 16.4 µM [inhibitor, single point]
CCOC(=O)Cc1csc(NC(=S)NC(=O)c2ccccc2)n1	inconclusive: -32% [inhibitor]	–
CCC(c1nnnn1-c1ccc2c(c1)OCCO2)N1CCc2ccccc2C1 (centres undefined)	–	inconclusive: 25.9 µM [inhibitor, single point]
C/C(=N\Nc1cc(N2CCCCC2)nc(C)n1)c1ccc(Br)cc1	–	active: 13 µM
CCc1ccc(C(=O)CC2(O)C(=O)N(CN3CCOCC3)c3ccccc32)cc1 (centres undefined)	inactive: -7.33%	–
c1csc(-c2nc(N3CCCCC3)no2)c1	inconclusive: -35.4% [inhibitor]	–
O=C(Nc1cccc2c1CCCC2)c1ccc(F)cc1	inactive: -20.1%	–
COc1ccc(S(=O)(=O)N(C)C[C@H]2Oc3c(NS(=O)(=O)c4ccc(F)cc4)cccc3C(=O)N([C@H](C)CO)C[C@@H]2C)cc1	inconclusive: -32.8% [inhibitor]	–
